# Hit rate of the full screen: of about 200,000 compounds, about 10 (0.005%) were called active. This list was built around the results that the source calls inconclusive (neither active nor inactive); the mix of calls is not that of the screen. Calls follow the shape of the dose curve; as a rule, active = well fitted inhibition curve with a large enough effect; inconclusive = small, poorly fitted or top-dose-only effect, or effect the other way, or another doubt; inactive = no such curve, though single readings can be large or run the other way. A potency beside an inconclusive call is a rough fit, not a confirmed value.
# Biological target: Lysosomal alpha-glucosidase (Homo sapiens) (UniProt P10253)
# Test: qHTS Assay for Inhibitors of Human alpha-Glucosidase as a Potential Chaperone Treatment of Pompe Disease;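 as to activity change, negative = inhibition: plate controls were uninhibited enzyme wells for no effect and no-enzyme background for full effect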
# Settings: purified human GAA, 4-MU-alpha-glucoside fluorescence; activity change, negative = inhibition: at 76.9 µM (top of the series) unless noted
# Procedure, shortened: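 Fluorogenic assay: 4 nM human alpha-glucosidase with 400 uM 4-methylumbelliferyl-alpha-D-pyranoside in 50 mM citrate/phosphate, 0.005% Tween-20, pH 5.0, 20 min at room temperature. Compounds tested up to 77 uM; AC50 from Hill fits.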
# Potency is read from the fitted curve at half-maximal effect; tags tell the direction and shape of the fitted curve.
Compound,"activity change, negative = inhibition",Potency
COc1cc(OC)cc(C(=O)NNc2nc3cc4c(cc3s2)OCO4)c1,inactive: -1.98% [at 15.4 µM],
Cc1cc(C)n(-c2nc(NCCCO)c3c4c(sc3n2)CCCC4)n1,,"inconclusive: 20 µM [activator, partial curve]"
COc1ccccc1N1CCN(C(=O)CCN2C(=O)c3cccc4cccc(c34)C2=O)CC1,inconclusive: 11% [activator],
C=CC[C@@H]1C=C[C@H](O/N=C/c2ccc(C(=O)N3[C@H](c4ccc(C)cc4)[C@@H](C)CC[C@H]3C(=O)OC)cc2)[C@@H](CO)O1,,"inconclusive: 56.2 µM [inhibitor, single point]"
CCC1CCCCN1CCCNC(=O)CNC(=O)Cn1ccc2ccccc2c1=O (stereo not drawn),inconclusive: 18.5% [activator],
CCOC(=O)c1cc([N+](=O)[O-])sc1NC(=O)c1ccc(S(=O)(=O)N2CC3(C)CC2CC(C)(C)C3)cc1 (stereo not drawn),,"inconclusive: 56.2 µM [inhibitor, single point]"
C/C(=N\NC(=O)c1ccc(N(C)C)cc1)c1ccc(C)cc1C,,"inconclusive: 56.2 µM [inhibitor, single point]"
CCC(C)C(=O)NCCc1ccc(S(N)(=O)=O)cc1 (stereo not drawn),,"inconclusive: 5.62 µM [inhibitor, single point]"
Cn1ccc(-c2ccccc2)n1,,inactive
Cc1ccsc1/C=N\NC(=O)c1n[nH]c2c1CCC2,,inactive
Cc1ccccc1NS(=O)(=O)c1ccc(OCC(=O)N2CCCCC2)cc1,,"inconclusive: 28.2 µM [inhibitor, single point]"
O=C(OCCN1CCCC1)C1(c2ccccc2)CCCC1,inconclusive: 2.36% [inhibitor] [at 15.4 µM],
O=Cc1nc(-c2ccc(Cl)cc2)n2ccccc12,,"inconclusive: 31.6 µM [activator, single point]"
NNC(=O)c1cc(-c2ccc(O)cc2)nc2ccc(Br)cc12,,"inconclusive: 39.8 µM [inhibitor, single point]"
CCC1(CC)Cc2ccccc2C(Nc2c(C)n(C)n(-c3ccccc3)c2=O)=N1,inconclusive: 15.3% [activator],
CCN(CC)CC#CCC(O)(c1ccccc1)c1ccccc1,inconclusive: 13.8% [activator],
O=C(CCCN1C(=O)c2ccccc2C1=O)Nc1nccs1,,"inconclusive: 44.7 µM [inhibitor, single point]"
CCOC(=O)C1CCCN(C(=O)c2cn(CC)c3ccc(S(=O)(=O)N(C)C)cc3c2=O)C1 (stereo not drawn),,"inconclusive: 56.2 µM [inhibitor, partial curve, poor fit]"
COCCn1c(SC(C)C(=O)Nc2ncc(Cl)cc2Cl)nc2ccccc21 (stereo not drawn),,"inconclusive: 56.2 µM [inhibitor, single point]"
Cn1nc(C(=O)OCc2ccccc2F)c2ccccc2c1=O,,"inconclusive: 1.78 µM [inhibitor, full curve]"
CCc1cc(C)cc(OCCNC(=O)c2cncc(Br)c2)c1,inconclusive: -19% [inhibitor],
O=C(NCC1CCCO1)c1cccc(F)c1 (stereo not drawn),,"inconclusive: 1.41 µM [inhibitor, full curve]"
O=C1C2Sc3[nH]c(=O)sc3C(c3ccccc3)C2C(=O)N1c1ccc(Cl)cc1 (stereo not drawn),,inactive

Compound,"activity change, negative = inhibition",Potency
COC(=O)C1=CNC=C(C(=O)OC)C1c1ccc(C(=O)OC)cc1,inconclusive: 86.5% [activator],
COc1ccc(N2C(=O)CC(Sc3ccccc3C(=O)O)C2=O)c([N+](=O)[O-])c1 (stereo not drawn),inconclusive: 18.7% [activator],
Cc1ccc(S(=O)(=O)N2CCN(C(=O)Cc3ccccc3)CC2)cc1,,"inconclusive: 35.5 µM [inhibitor, single point]"
CCOC(=O)NC(=O)COC(=O)Cc1cc(OC)c(OC)c(OC)c1,,"inconclusive: 56.2 µM [activator, single point]"
COC(=O)c1ccccc1NC(=O)c1c(Br)cnn1C,inconclusive: 8.2% [activator],
O=C1Nc2cc3c(cc2Sc2ccccc21)OCCO3,,"inconclusive: 3.55 µM [inhibitor, partial curve]"
O=C(Nc1ccccc1)Nc1nnc(/C=C/c2ccccc2Cl)s1,,"inconclusive: 7.94 µM [activator, partial curve]"
O=C(Cc1ccc(F)cc1)NCC1CCCO1 (stereo not drawn),inconclusive: 15.1% [activator],
Oc1ccc(-c2csc(Nc3ncccn3)n2)cc1O,,inactive
CCCCNC(=O)c1cc2c(=O)n3cccc(C)c3nc2n(Cc2ccncc2)c1=N,,"inconclusive: 0.282 µM [inhibitor, full curve]"
CN1CCN(CC(=O)Nc2ccc(Oc3ccccc3)cc2)CC1,,"inconclusive: 17.8 µM [inhibitor, partial curve, poor fit]"
O=C(c1ccc(S(=O)(=O)N2CCCCC2)cc1)N1CCN(CCN2C(=O)c3cccc4cccc(c34)C2=O)CC1,,"inconclusive: 39.8 µM [inhibitor, single point]"
CN1c2ccsc2/C(=N/Nc2ccccc2)CS1(=O)=O,,"inconclusive: 31.6 µM [inhibitor, single point]"
COc1ccccc1CNC(=O)C1CCN(S(=O)(=O)c2ccc3c(c2)OCCCO3)CC1,inconclusive: -15.5% [inhibitor],
Cc1ccc2[nH]c3c(=O)n(N)c(=O)[nH]c3c2c1,,"inconclusive: 28.2 µM [activator, partial curve]"
C=CCOC(=O)C1=C(C)NC(SCC(=O)NC(=O)OCC)=C(C#N)C1c1cccnc1 (stereo not drawn),,"inconclusive: 50.1 µM [activator, single point]"
COc1ccc(-c2cc(C(=O)N3CCOCC3)c3cc(C)ccc3n2)cc1,,"inconclusive: 22.4 µM [activator, partial curve]"
COC(=O)c1cc(NC(=O)c2nccnc2C(=O)O)cc(C(=O)OC)c1,inconclusive: -16.5% [inhibitor],
Cc1ccccc1Cn1ccc(NC(=O)c2cc3nc(-c4ccco4)cc(C(F)(F)F)n3n2)n1,,"inconclusive: 31.6 µM [activator, single point]"
CCOC(=O)CNC(=O)c1nn(-c2cccc(OC)c2)c(=O)c2ccccc12,,"inconclusive: 50.1 µM [inhibitor, single point]"
Cc1ccc(CN2CCC(N3CCC(C(=O)NCC4CCCO4)CC3)CC2)o1 (stereo not drawn),inconclusive: 18.2% [activator],
COc1ccc(COc2cc(-c3cccc(OC)c3)nc3ccc(NC(=O)c4ccc(N(C)C)cc4)cc23)cc1,,"inconclusive: 35.5 µM [activator, single point]"
COc1ccc(C(=O)Cc2nnc(C)s2)c(OC)c1,,inactive

Compound,"activity change, negative = inhibition",Potency
O=C(CN1C(=O)CCC1=O)Nc1ccc(S(=O)(=O)N2CCOCC2)cc1,inconclusive: -17.6% [inhibitor],
Cc1ccc2nc3nc(NCC4CCCO4)c(C(=O)NC4CCCC4)cc3c(=O)n2c1 (stereo not drawn),,"inconclusive: 35.5 µM [activator, partial curve]"
N/C(=N\O)C1COc2ccccc2O1 (stereo not drawn),,"inconclusive: 0.794 µM [inhibitor, full curve, poor fit]"
CC(=O)c1cc2c(O)c(O)ccc2o1,,inactive
CCCCn1c(=NC(=O)c2cccnc2)c(C(=O)OCC)cc2c(=O)n3ccccc3nc21,,"inconclusive: 44.7 µM [activator, partial curve, poor fit]"
O=C(O)c1cc(-c2ccncc2)nc2ccc(F)cc12,,"inconclusive: 31.6 µM [inhibitor, single point]"
O=C(O)c1ccc(N=C2SCC(=O)N2Cc2ccccc2)cc1,,inactive
Nc1cc(Br)c(N)c(Br)c1,,inactive
C=CCNC(=S)NC1CC(C)(C)NC(C)(C)C1,,"inconclusive: 1.26 µM [inhibitor, full curve, poor fit]"
COCc1cc(C)nc(SCC(=O)Oc2ccc(Cl)cc2)c1C#N,inconclusive: 15.1% [activator],
CC1CCCCC1NC(=O)c1cn(C)c2ccc(S(=O)(=O)N3CCCC3)cc2c1=O (stereo not drawn),,"inconclusive: 31.6 µM [inhibitor, partial curve]"
O=C(Oc1ccc2c3c(c(=O)oc2c1)CCCC3)c1ccco1,,"inconclusive: 35.5 µM [activator, partial curve]"
O=C(Nc1ccc2c(c1)OCCO2)c1ccc2nccnc2c1,,"inconclusive: 11.2 µM [inhibitor, single point]"
COc1cc(OC)nc(NC(=O)NS(=O)(=O)c2ccc(F)cc2)n1,,"inconclusive: 2.82 µM [inhibitor, partial curve]"
CCN(CC)S(=O)(=O)c1cccc(C(=O)N/N=C/c2cccc(O)c2O)c1,,inactive
Brc1ccccc1-c1nc(-c2ccccc2)no1,inconclusive: -15.7% [inhibitor],
COc1cccc(OCC(=O)NNC(=O)CCc2ccccc2)c1,,"inconclusive: 12.6 µM [inhibitor, single point]"
Cc1nn(C)c(C(=O)Nc2ccn(Cc3ccccc3F)n2)c1[N+](=O)[O-],,"inconclusive: 50.1 µM [inhibitor, single point]"
CCc1cccc(NC(=O)Cc2ccc([N+](=O)[O-])cc2)c1,,"inconclusive: 3.16 µM [inhibitor, partial curve]"
COc1ccc(S(=O)(=O)Nc2cc(C)cc(C)n2)c2ccccc12,,"inconclusive: 10 µM [inhibitor, partial curve]"
COc1ccc(-c2cc(C(N)=O)nc(N3CCCCCC3)n2)cc1,,"inconclusive: 50.1 µM [activator, single point]"
COc1ccc(N/C=C\C(=O)c2ccc(Br)cc2)cc1OC,,"inconclusive: 35.5 µM [inhibitor, single point]"
